In all, about 33,000 sequences were measured (“E-score (-0.5 to 0.5)”: median about -0.035, highest 2% from about 0.34 on). This is one part of the list.
The sequences below were run against T1, Mot3 (UniProt P54785) (assay: PBM E-score (8-mer binding enrichment) (E-score (-0.5 to 0.5)); higher = stronger / more preferred TF binding; most listed sequences are background and not binding sites). Conditions: protein concentration: 200 nM; construct: GST-full length.
T1 sequence: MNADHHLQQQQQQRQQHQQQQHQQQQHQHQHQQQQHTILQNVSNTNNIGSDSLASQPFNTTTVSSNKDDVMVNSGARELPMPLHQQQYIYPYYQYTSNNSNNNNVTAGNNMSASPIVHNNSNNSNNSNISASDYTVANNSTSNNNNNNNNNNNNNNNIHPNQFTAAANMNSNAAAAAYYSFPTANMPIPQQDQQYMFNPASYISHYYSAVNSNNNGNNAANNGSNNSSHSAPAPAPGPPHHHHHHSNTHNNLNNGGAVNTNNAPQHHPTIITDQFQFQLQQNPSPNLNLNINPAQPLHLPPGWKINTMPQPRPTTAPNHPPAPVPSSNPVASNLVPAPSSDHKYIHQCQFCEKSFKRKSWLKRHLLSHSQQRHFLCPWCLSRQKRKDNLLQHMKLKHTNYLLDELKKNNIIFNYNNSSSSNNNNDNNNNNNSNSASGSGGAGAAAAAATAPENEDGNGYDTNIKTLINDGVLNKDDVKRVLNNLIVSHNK
In short: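 GST-tagged yeast TFs (full-length or DNA-binding domain) were made by PURExpress in vitro transcription/translation and applied at about 100-200 nM to universal all-10-mer Agilent arrays. The arrays were made double-stranded by primer extension, on fresh or once-stripped slides. Bound protein was detected with fluorescent anti-GST, and scans were normalised with masliner. Each ungapped eight-base word, pooled with its reverse complement, received an E-score (modified Wilcoxon-Mann-Whitney statistic) from the Universal PBM Analysis Suite.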

Sequence | PBM E-score
ATCTGCTA | 0.00543
AATGCGCG | 0.0273
GTGGTAGA | -0.122
CTCGCGCA | -0.249
ACACGCCT | 0.294
AATGGCAC | -0.119
GTCCCCAA | -0.232
GCAGGTAA | 0.385
ATACCCAA | -0.0373
CAAGGCGG | -0.123
AGAAGCTA | -0.135
ACGTTGAC | 0.0852
AATCGTCG | -0.0578
CCCCGAAA | -0.156
ACCTTAAG | 0.0486
ATGAACCG | 0.0149
ACGAAAGC | -0.058
TAATCACA | 0.19
CCACAGAC | -0.113
GGACTCAC | -0.343
ACCGGTGG | -0.441
GAGGTCAC | -0.307
CGACCCCC | -0.258
CTTCTCGA | -0.00621

Sequence | PBM E-score
CTAAACGA | 0.0191
AACGCCGG | -0.147
GACCTAAC | -0.0438
GGAAAGGA | 0.0433
AAGTGTGT | 0.209
GCCGATGA | -0.249
GGCTTCAC | -0.342
AGTCTGAT | -0.17
CGAGGACA | -0.0813
GAGACACC | -0.134
ATGCCCAA | -0.0977
ACGCGATC | 0.0832
CATATAGA | -0.00822
ATCTGGTG | -0.00173
ATGTTGTA | 0.286
AGCTGCTG | -0.0897
ACACAAAA | 0.226
CTTTCCCC | -0.0549
ACTGAAAC | 0.0956
CCGCCGGC | -0.256
CCGTCAGA | -0.265
GCGTAGAA | 0.232
CACGACCC | -0.174
CGTCTATA | -0.0683

Sequence | PBM E-score
ACAGTAGT | -0.0747
ATTTTTAC | 0.34
AACCTAGT | -0.0142
ACTGTGTG | 0.185
GATTTGTA | 0.182
GTTGTTGA | 0.21
CGCTTTAG | -0.134
AGTGAACA | 0.0824
TGGTCGAA | -0.124
TAGAAATA | 0.145
AGAATGCC | -0.194
ATGTAAGG | 0.298
CCAGAGCC | -0.163
GACTAATA | -0.0111
CGCTTCTC | -0.155
ACGGCCGA | -0.0938
CAGCGTCG | -0.00757
GGAACTGA | 0.0134
ACGGATAG | -0.0201
AGTTAGCC | -0.17
CAAACCCG | -0.166
GATCTATA | -0.0636
CTGGCCAC | -0.0841
ACCTGTCC | -0.218

Sequence | PBM E-score
CCATATGC | -0.141
CAGCATCG | -0.243
AGGGATTC | -0.274
CGCTGGCA | -0.107
CCCCATAA | -0.0223
CCTATTAG | 0.0489
AATTTTGC | 0.169
AAGCCCTG | -0.0744
AATATGCG | -0.0421
GAAATGAC | 0.0628
CCACTATA | -0.114
GTTTCCGA | 0.122
CCCATTCG | 0.0267
GCCGGAGC | -0.252
GCAGGACC | -0.237
AAATTCTG | -0.0708
AAGATTGG | -0.103
GGCACGAC | 0.36
AGAGACTA | -0.146
CACAGCTC | 0.0935
ACCTAGTG | 0.0114
CAACTTCC | -0.0487

From the supplement of paper PMC3334620
